Consider 32 compounds from the supplement of paper PMC6135742.

Counter-ions that a name gives are not always drawn. ± gives the standard deviation of the averaged measurements. Whole data set: some 2,600 compounds, median “MBP+ mature oligodendrocyte number relative to DMSO vehicle control” near -0.34, cut for the highest 2% near 13. This is one part of the list.
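Also: 10 µM single dose with 3-day oligodendrocyte differentiation.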

The experiment concerns jimpy (Plp1 jimpy) mouse iPSC-derived oligodendrocyte progenitor cells. As to the kind of experiment: MBP+ mature oligodendrocyte number relative to DMSO vehicle control (SDs above negative control mean); higher = more surviving jimpy oligodendrocytes (rescue). The settings on record: 10 µM; 3 days.
For the compound `CC(C)(Cc1ccc2ccccc2c1)NC[C@@H](O)COc1cccc(Cl)c1C#N`, the “MBP+ mature oligodendrocyte number” value is less than -6.01.

In the case of `O=C(c1cn(Cc2cncn2Cc2ccc(Br)cc2)cc1-c1cccc2ccccc12)N1CCOCC1`, the “MBP+ mature oligodendrocyte number” value was -2.66.

As to `CCN1CCN(C(=O)N[C@@H](C(=O)N[C@@H]2C(=O)N3C(C(=O)O)=C(CSc4nnnn4C)CS[C@H]23)c2ccc(O)cc2)C(=O)C1=O` [Cefoperazone], the “MBP+ mature oligodendrocyte number” value is -4.88. Next, `CN(C)CCOc1ccc(/C(=C(/CCCl)c2ccccc2)c2ccccc2)cc1` [Toremifene Citrate]: less than -5.15; `Cc1cc(Nc2ncnc3ccc(-c4ccc(CNCCS(C)(=O)=O)o4)cc23)ccc1Oc1ccn2ncnc2c1` [HER2-Inhibitor-1]: less than -6.01; `CC1=Nc2ccc(Cl)cc2S(=O)(=O)N1` [Diazoxide]: 0.973. Take `O=c1c(-c2ccc(O)cc2)coc2c([C@@H]3O[C@H](CO)[C@@H](O)[C@H](O)[C@H]3O)c(O)ccc12` [Puerarin]: the “MBP+ mature oligodendrocyte number” value was -0.836. Turning to `CCn1nc(C(=O)O)c(=O)c2cc3c(cc21)OCO3` [Cinoxacin], the “MBP+ mature oligodendrocyte number” value is -0.551.

With `COCCOC(=O)C1=C(C)NC(C)=C(C(=O)OC/C=C/c2ccccc2)C1c1cccc([N+](=O)[O-])c1` (configuration not stated) [Cilnidipine], the “MBP+ mature oligodendrocyte number” value stood at 11.4 ± 2.9. For `CCOc1nc2cccc(C(=O)O)c2n1Cc1ccc(-c2ccccc2-c2noc(=O)[nH]2)cc1` [Azilsartan], the “MBP+ mature oligodendrocyte number” value was found to be 0.58. As for `Cc1cc([C@@H](C)Nc2ccccc2C(=O)O)c2nc(N3CCOCC3)cc(=O)n2c1`, the “MBP+ mature oligodendrocyte number” value was -4.25. In the case of `CN1CCN(c2nc3cc(C(F)(F)F)ccc3n3cccc23)CC1`, the “MBP+ mature oligodendrocyte number” value was -3.32.

As for `COc1cc2nccc(Oc3ccc(NC(=O)C4(C(=O)Nc5ccc(F)cc5)CC4)cc3)c2cc1OC`, the “MBP+ mature oligodendrocyte number” value was -6.09. Regarding `O=C(O)/C=C/c1ccc(Cn2ccnc2)cc1` [Ozagrel], the “MBP+ mature oligodendrocyte number” value was -1.62. Turning to `O=C(O)/C=C/c1ccc(Cn2ccnc2)cc1` [Ozagrel HCl], the “MBP+ mature oligodendrocyte number” value is -2.45.

`CCCc1nc(C)c2c(=O)nc(-c3cc(S(=O)(=O)N4CCN(CC)CC4)ccc3OCC)[nH]n12` [Vardenafil HCl Trihydrate]: the “MBP+ mature oligodendrocyte number” value stood at 8.56. Regarding `CNC(=O)c1cc(COc2nnc(Nc3ccc(Cl)cc3)c3ccoc23)ccn1` [Telatinib], the “MBP+ mature oligodendrocyte number” value turned out to be 5.93.

In the case of `OC1(c2ccc(Cl)c(C(F)(F)F)c2)CCN(CCCC(c2ccc(F)cc2)c2ccc(F)cc2)CC1` [Penfluridol], the “MBP+ mature oligodendrocyte number” value was -6.18.

On to `C[C@@H]1C[C@H]2[C@@H]3CCC4=CC(=O)C=C[C@]4(C)[C@@]3(F)[C@@H](O)C[C@]2(C)[C@@]1(O)C(=O)CO` [Dexamethasone (DHAP)], for which the “MBP+ mature oligodendrocyte number” value came to 5.96. Next, `Cc1cnc(NC(=O)C2=C(O)c3ccccc3S(=O)(=O)N2C)s1` [Meloxicam sodium]: -0.519; `Cc1cnc(NC(=O)C2=C(O)c3ccccc3S(=O)(=O)N2C)s1` [Meloxicam]: -0.107; `CC(C)NCC(O)COc1ccc(CC(N)=O)cc1` (racemic) [(±)-Atenolol]: -0.315. Consider `O=C(O)CCCc1ccccc1` [Sodium Phenylbutyrate], for which the “MBP+ mature oligodendrocyte number” value was -0.607. The same measure for `CC1(C)O[C@@H]2C[C@H]3[C@@H]4CCC5=CC(=O)C=C[C@]5(C)[C@@]4(F)[C@@H](O)C[C@]3(C)[C@]2(C(=O)CO)O1` [Triamcinolone Acetonide]: 5.92; for `N=C(N)SCCc1c[nH]cn1` [Imetit dihydrobromide]: -0.363; for `COc1ccccc1S(=O)(=O)Nc1ccc2c(c1)CN(C)C(=O)N2`: less than -6.7.

Consider `Nc1nc(=O)c(Br)c(-c2ccccc2)[nH]1` [Bropirimine], for which the “MBP+ mature oligodendrocyte number” value is -1.03.

In the case of `Cc1nnc(NS(=O)(=O)c2ccc(N)cc2)s1` [Sulfamethizole], the “MBP+ mature oligodendrocyte number” value is 2.95. Turning to `CN(C)c1ccc(/C=C2/C(=O)Nc3ccccc32)cc1`, the “MBP+ mature oligodendrocyte number” value was found to be 0.789. Consider `COc1cc(NS(C)(=O)=O)ccc1Nc1c2ccccc2nc2ccccc12` [Amsacrine hydrochloride], for which the “MBP+ mature oligodendrocyte number” value is less than -3.34. The same measure for `FC(F)c1nc2ccccc2n1-c1nc(N2CCOCC2)nc(N2CCOCC2)n1`: less than -6.7. Take `CCN1CCN(c2cc3c(cc2F)c(=O)c(C(=O)O)cn3C2CC2)CC1` [Enrofloxacin]: the “MBP+ mature oligodendrocyte number” value came out at 0.898.
